# Laboratory results reported in PubChem BioAssay (NCATS).
# The shares of active, inactive and inconclusive entries below differ from those in the screen. No potency is given beside an inconclusive call; the fits are too rough. Active and inactive are the calls of the source. Calls come from the whole dose curve; as a rule, active = well fitted curve in the direction sought with a large enough effect; inconclusive = small, poorly fitted or top-dose-only effect, or another doubt; inactive = no such curve, though single readings can be large; an effect the other way counts as inactive or inconclusive.
# Assays:
# [1] = biological target: Aldehyde dehydrogenase, mitochondrial (Homo sapiens) (UniProt P05091); assay: qHTS for Inhibitors of the Aldehyde Dehydrogenase Family (ALDH2) Primary screen (AID 2061308); note: nearly all actives have a fitted effect of over 55% in size;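 for activity change, negative = inhibition: plate controls were vehicle for no effect and reference inhibitor for full effect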
# [2] = biological target: Retinaldehyde dehydrogenase 3 (Homo sapiens) (UniProt P47895); assay: qHTS for Inhibitors of the Aldehyde Dehydrogenase Family (ALDH1A3) Primary screen (AID 2061315); settings: ALDH inhibition qHTS; activity change, negative = inhibition: at 56 µM (top of the series) unless noted;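 for activity change, negative = inhibition: plate controls were DMSO vehicle for no effect and reference inhibitor for full effect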
# [3] = BET inhibitor-based combinations targeting novel dependencies in MECOM-rearranged (r) AML: SET-2 cell line (AID 2202231); settings: SET-2 AML cells viability, CellTiter-Glo luminescence, 48 h; viability: stronger effect = lower value, concentration not given here; note: nearly all actives have a fitted effect of over 35% in size;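 for viability: plate controls were DMSO treated cells for no effect and wells without cells for full effect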
# Method in brief: (§1)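 Readout: CellTiter-Glo luminescence. Exposure: 48 h, 11 concentrations, 500 cells/well. Metric: AUC and within-line Z-AUC after DMSO/empty-well normalization.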
# [4] = BET inhibitor-based combinations targeting novel dependencies in MECOM-rearranged (r) AML: OCI-AML3 cell line (AID 2202232); settings: CellTiter-Glo luminescence, 48 h; Potency: OCI-AML3 viability; viability (% of control): at 46 µM (top of the series); note: nearly all actives have a fitted effect of over 35% in size
# Method in brief: as §1
# [5] = BET inhibitor-based combinations targeting novel dependencies in MECOM-rearranged (r) AML: MV-4-11 cell line (AID 2202233); settings: MV-4-11 AML viability, CellTiter-Glo luminescence, 48 h; viability, % of control: at 46 µM (top of the series) unless noted; note: nearly all actives have a fitted effect of over 45% in size
# Method in brief: (§2)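 Seeding density was 500 cells/well, and drug exposure lasted 48 hr under standard culture conditions. Read-out used CellTiter-Glo reagent with a 15 min room-temperature incubation before luminescence measurement; AUC and Z-AUC summarize the normalized responses.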
# [6] = BET inhibitor-based combinations targeting novel dependencies in MECOM-rearranged (r) AML: HNT-34 cell line (AID 2202234); note: nearly all actives have a fitted effect of over 35% in size
# Method in brief: as §2
# [7] = BET inhibitor-based combinations targeting novel dependencies in MECOM-rearranged (r) AML: UCSD-AML1 cell line (AID 2202235); settings: UCSD-AML1 AML cells viability, CellTiter-Glo, 48 h; viability (% of control): at 46 µM (top of the series); note: nearly all actives have a fitted effect of over 40% in size
# Method in brief: as §2
# [8] = BET inhibitor-based combinations targeting novel dependencies in MECOM-rearranged (r) AML: AML-194 cell line (AID 2202237; note: nearly all actives have a fitted effect of over 40% in size)
# Method in brief: as §1
# [9] = BET inhibitor-based combinations targeting novel dependencies in MECOM-rearranged (r) AML: AML-191 cell line (AID 2202236; note: nearly all actives have a fitted effect of over 35% in size)
# Method in brief: as §1
# Potency is the fitted concentration of half-maximal effect; tags give direction and shape of the fitted curve.
smiles,measurement,setting,value
O=C(OCC#CCSc1nnc(-c2ccc3ccccc3c2)o1)c1cc2ccccc2s1,Potency,[1],inactive
same,Potency,[2],inactive
N#CC[C@H](C1CCCC1)n1cc(-c2ncnc3[nH]ccc23)cn1,Potency,[1],inactive
same,Potency,[2],inactive
same,Potency,[3],"inconclusive [inhibitor, full curve]"
same,Potency,[4],"inconclusive [inhibitor, full curve, poor fit]"
same,Potency,[5],"inconclusive [inhibitor, full curve]"
same,Potency,[6],"inconclusive [inhibitor, partial curve]"
same,Potency,[7],"inconclusive [inhibitor, full curve, poor fit]"
same,Potency,[8],"inconclusive [inhibitor, full curve]"
COc1cc(C2Oc3c(OC)cc(/C=C/C(=O)OC[C@H]4O[C@@H](OC(C)(C)C(=O)O)[C@H](O)[C@@H](O)[C@@H]4O)cc3C2CO)ccc1O (some centres not stated),Potency,[1],inactive
same,Potency,[2],"inconclusive [inhibitor, partial curve]"
Cc1ccnc(NC(=S)N2CCN(c3ccc(C(F)(F)F)cc3)CC2)c1,Potency,[1],"inconclusive [inhibitor, partial curve, poor fit]"
same,Potency,[2],"inconclusive [inhibitor, partial curve, poor fit]"
CC[C@H](Nc1ncnc2nc[nH]c12)c1nc2cccc(F)c2c(=O)n1-c1ccccc1,Potency,[1],"inconclusive [inhibitor, partial curve, poor fit]"
same,Potency,[2],inactive
same,viability,[3],inactive: 94.4%
same,Potency,[5],"inconclusive [inhibitor, full curve]"
same,Potency,[6],"inconclusive [inhibitor, partial curve]"
same,Potency,[7],active: 5.9 µM
same,Potency,[9],"inconclusive [inhibitor, partial curve, poor fit]"
same,Potency,[8],"inconclusive [inhibitor, full curve, poor fit]"
